Laboratory results from PubChem BioAssay AID504706 (National Center for Advancing Translational Sciences (NCATS), 2011).
About 200 (0.062%) of roughly 320,000 compounds were called active. The inconclusive results got no clear call from the source; some entries with a clear call stand among them for comparison. Calls follow the shape of the dose curve; as a rule, active = well fitted activation curve with a large enough effect; inconclusive = small, poorly fitted or top-dose-only effect; inactive = no such curve, though single readings can be large or run the other way. Potencies of inconclusive entries are left out as doubtful fits.

Assay: qHTS assay for re-activators of p53 using a Luc reporter; also: nearly all actives have a fitted effect of over 45% in size
Conditions: H1299 p53-A138V BP100-luciferase reporter, luminescence, 24 h; series mostly up to 92.2 µM
Method in brief: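 p53-null H1299 cells stably carrying temperature-sensitive p53-A138V and a BP100-luciferase reporter were pinned with compounds (4-point, 1:5 series) and held 24 hrs at 37 deg C. Luminescence was read 10 min after detection reagent.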
Potency is read from the fitted curve at half-maximal effect; tags tell the direction and shape of the fitted curve.

With `O=C(OC1CCCCC1)c1cc2ccccc2oc1=O` as the molecule, how does the Potency read?
Its Potency is inconclusive [activator, full curve, poor fit].

Which Potency does the source give for `COc1ccc(OCc2cc(C(=O)NCC3(C)COC3)no2)c(Cl)c1` here?
Its Potency is inconclusive [activator, full curve, poor fit].

With `CC(C)c1ccccc1-n1c(SCC(=O)c2ccc3c(c2)NC(=O)CO3)nc2ccccc2c1=O` as the molecule, how does the Potency read?
The Potency was “inactive”.

With `CCOC(=O)C(C(C)=O)c1c(Br)c(O)c(O)c2c(C(=O)c3ccc(C)cc3)coc12` (stereo not given) as the molecule, how does the Potency read?
The Potency was active: 25.1 µM.

With `CN(C)CCNc1oc(-c2ccccc2Cl)nc1S(=O)(=O)c1ccccc1` as the molecule, how does the Potency read?
Its Potency is “inactive”.

For `Nc1ccccc1Sc1nc2ccccc2[nH]1`, which Potency is on record?
The Potency was inconclusive [activator, partial curve, poor fit].

For `CN(c1ccccc1C(=O)Nc1cccc(Br)c1)S(=O)(=O)c1ccccc1`, which Potency is on record?
The Potency was inconclusive [activator, full curve, poor fit].

For `O=C(NCc1ccccc1)C1=C[C@@H](c2csc3ccccc23)C[C@@H](OCCCCO)O1`, which Potency is on record?
Its Potency is “inactive”.

With `Cc1ccc(S(=O)(=O)NCc2ccccc2)cc1C(=O)NCCc1ccc(S(N)(=O)=O)cc1` as the molecule, how does the Potency read?
Its Potency is inconclusive [activator, single point].

Which Potency does the source give for `CC(=O)Nc1cccc(NC(=O)Nc2ccc(C(C)=O)cc2)c1` here?
Its Potency is inconclusive [activator, full curve, poor fit].

Which Potency does the source give for `COc1cccc(C(=O)NNC(=O)C(=O)Nc2ccc(OC)cc2OC)c1` here?
Its Potency is “inactive”.

Which Potency does the source give for `ON1C(c2ccccc2C(F)(F)F)N(O)[C@H]2CCCC[C@H]21` (stereo not given in full) here?
Its Potency is inconclusive [activator, single point].

With `CC(=O)Nc1c(C(=O)Nc2ccc3c(c2)OCO3)oc2ccccc12` as the molecule, how does the Potency read?
The Potency was inconclusive [activator, partial curve, poor fit].

For `Cc1csc(NC(=O)CSc2nnc(-c3ccoc3C)o2)n1`, which Potency is on record?
Its Potency is inconclusive [activator, full curve, poor fit].

Which Potency does the source give for `CC(=O)CSc1ccc(-c2nc3ccccc3[nH]2)cn1` here?
The Potency was “inactive”.

Which Potency does the source give for `Cc1cc([N+](=O)[O-])nn1CC(=O)N(C)Cc1ccccc1` here?
The Potency was inconclusive [activator, single point].

Which Potency does the source give for `C/C(=N\NC(=S)NC(C)C)c1ccc(-n2ccnc2)cc1` here?
Its Potency is “inactive”.

Which Potency does the source give for `C=C(C(=O)Oc1ccccc1C(C)(C)C)c1ccccc1` here?
The Potency was inconclusive [activator, single point].

For `OCCCNc1ncnc2c1cnn2-c1ccc(Cl)cc1`, which Potency is on record?
The Potency was “inactive”.

With `COc1ccc(O)c(/C=N/NS(=O)(=O)c2ccc(C)cc2)c1` as the molecule, how does the Potency read?
The Potency was inconclusive [activator, partial curve].
